# Measured values: publication PMC4336329 (PLoS ONE, 2015)
# Hit rate of the full screen: of about 310,000 compounds, about 2,200 (0.71%) showed an effect of 50% or more. Effects have a minus sign here. The list shows a part of the results.
# Target: human ether-à-go-go-related gene (hERG) potassium channel (human, UniProt Q12809)
# Assay: primary screen, population patch clamp on CHO cells stably expressing hERG
# human ether-à-go-go-related gene (hERG) potassium channel, sequence (Q12809 whole entry, looked up): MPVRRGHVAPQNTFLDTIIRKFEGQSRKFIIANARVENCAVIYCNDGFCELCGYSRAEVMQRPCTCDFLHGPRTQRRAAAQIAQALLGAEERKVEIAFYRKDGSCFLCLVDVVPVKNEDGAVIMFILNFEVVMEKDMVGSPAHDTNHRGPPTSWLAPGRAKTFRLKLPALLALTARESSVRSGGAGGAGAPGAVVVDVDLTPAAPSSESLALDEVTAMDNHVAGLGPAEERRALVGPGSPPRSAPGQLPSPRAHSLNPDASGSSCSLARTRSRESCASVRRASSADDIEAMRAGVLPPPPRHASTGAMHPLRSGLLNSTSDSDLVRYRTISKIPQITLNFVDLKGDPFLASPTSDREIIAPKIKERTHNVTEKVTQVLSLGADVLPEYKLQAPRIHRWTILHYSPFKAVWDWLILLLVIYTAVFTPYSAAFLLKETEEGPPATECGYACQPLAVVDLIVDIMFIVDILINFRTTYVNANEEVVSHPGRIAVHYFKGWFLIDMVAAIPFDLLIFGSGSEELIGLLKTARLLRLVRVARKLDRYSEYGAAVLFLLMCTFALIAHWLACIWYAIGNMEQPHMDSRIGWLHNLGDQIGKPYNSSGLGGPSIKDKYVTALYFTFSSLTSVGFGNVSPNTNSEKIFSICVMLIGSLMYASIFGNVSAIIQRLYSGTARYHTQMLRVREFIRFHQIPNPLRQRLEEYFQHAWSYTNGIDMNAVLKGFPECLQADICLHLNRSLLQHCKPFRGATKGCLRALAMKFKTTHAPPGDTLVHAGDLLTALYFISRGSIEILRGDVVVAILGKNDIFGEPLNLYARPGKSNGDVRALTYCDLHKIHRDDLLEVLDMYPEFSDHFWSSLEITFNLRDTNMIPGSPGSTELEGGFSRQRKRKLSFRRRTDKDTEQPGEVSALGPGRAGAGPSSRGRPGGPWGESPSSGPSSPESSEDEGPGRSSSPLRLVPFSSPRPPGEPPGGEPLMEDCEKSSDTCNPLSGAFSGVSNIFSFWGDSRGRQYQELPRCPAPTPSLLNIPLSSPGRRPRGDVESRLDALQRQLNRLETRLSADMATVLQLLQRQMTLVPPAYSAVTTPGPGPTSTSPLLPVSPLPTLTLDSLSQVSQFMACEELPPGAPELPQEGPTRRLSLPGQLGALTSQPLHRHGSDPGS
row,SMILES,"hERG current change (%, negative = inhibition) at 1uM"
1,Cc1nnc(SCC(N)=O)n1CCc1ccccc1,10.9%
2,CC1Cc2ccccc2N1S(=O)(=O)c1cccc(C(=O)N2CCN(c3ncccn3)CC2)c1 (centres unmarked),11%
3,Cn1ncc(Br)c1C(=O)NC(=S)N1CCN(c2ccccn2)CC1,3.64%
4,O=C(NC1CCCCCCC1)c1ccc2c(c1)OCO2,11.9%
5,CCC1CCCCN1CCNC(=O)C1CCCN(S(=O)(=O)c2cccc3nsnc23)C1 (centres unmarked),0.484%
6,O=[N+]([O-])c1cccc(-c2ccc(C(=S)N3CCN(c4ccccc4)CC3)o2)c1,15%
7,O=C(NN1C(=O)/C(=C/C=C/c2ccccc2)SC1=S)c1ccncc1,11.2%
8,COC(=O)C1=C(C)Nc2ncnn2C1c1ccco1 (centres unmarked),9.82%
9,O=C(NCC(c1ccc(F)cc1)N1CCOCC1)c1cccnc1Sc1ccccc1 (centres unmarked),12.9%
10,O=C(Nc1ccc2c(c1)OCCO2)c1ccc(Cl)c([N+](=O)[O-])c1,8.05%
11,CN(CC(=O)Nc1ccccc1Cl)C(=O)COC(=O)c1ccc([N+](=O)[O-])cc1Cl,10.2%
12,CC(=O)N1c2c(cc(Br)cc2S(=O)(=O)N2CCN(c3ccccn3)CC2)CC1C (centres unmarked),10.2%
13,CCCCN=C1NN=C(c2cc3ccccc3o2)CS1,-4.55%
14,C/C(=N\NC(=S)NC1CCCCC1)c1ccc(C#N)cc1,12.2%
15,CN(Cc1nc2ccccc2c(=O)[nH]1)Cc1nc2ccsc2c(=O)[nH]1,6.69%
16,Cc1ccc(S(=O)(=O)N2CCCCC2)cc1NC(=O)c1ccccn1,9.89%
17,CC(=O)NS(=O)(=O)c1ccc(NC(=O)CCc2ccccc2)cc1,6.51%
18,Cc1cc(N/N=C/c2ccccc2)nc(N2CCOCC2)n1,2.01%
19,Cc1cccc(CSCc2ccc(C(=O)NC3CCCC3)o2)c1,2.56%
20,CCOc1ccc(/C=N\NC(=O)c2c(C)nc3cc(C)ccn23)cc1,9.74%
21,Cc1csc(NC(=O)c2ccc(S(=O)(=O)N(C)c3ccccc3)cc2)n1,8.88%
22,Cc1ccc(NC(=O)Cn2nnc(C(=O)NCc3ccco3)c2N)cc1,3.97%
23,CCN(CC(=O)Nc1ccccc1C(F)(F)F)C(=O)Cc1cccs1,15%

row,SMILES,"hERG current change (%, negative = inhibition) at 1uM"
1,O=C(COc1ccc(Br)cc1)Nc1ccc(-c2nnc(-c3ccco3)o2)cc1,0.523%
2,COc1ccc(S(=O)(=O)N2CCCC2)c(C)c1C,0.493%
3,CCOC(=O)N1CCN(C(=O)CSc2nc3c(cnn3-c3ccc(C)cc3)c(=O)[nH]2)CC1,-5.13%
4,COc1ccc2c(CC(=O)Nc3ccccc3N3CCOCC3)coc2c1,-6.52%
5,COc1ccc(OC)c(NC(=O)CS(=O)(=O)c2cn(CC(=O)N3CCOCC3)c3ccccc23)c1,14.7%
6,CC1(N2CCOCC2)CC2(O)C(=[N+]1[O-])CCc1c2no[n+]1[O-] (centres unmarked),11.5%
7,O=C(Nc1cccc(C(=O)N2CCCC2)c1)c1ccccc1Cl,0.986%
8,Cc1cc(C(=O)NNS(=O)(=O)c2cccc(Cl)c2)nn1C(C)(C)C,15.5%
9,CCC1CCCN1Cn1cnc2c([nH]c3ccc(OC)cc32)c1=O (centres unmarked),-35.8%
10,O=c1cc(COc2ccc(Cl)c(Cl)c2)nc2sccn12,14.6%
11,O=C(NNC1=NCCC1)c1cccc(Br)c1,13.1%
12,Br.CCCCCCN1Cc2ccccc2C1,-14.7%
13,Cc1ccc(Nc2nnc(SC(C)C(=O)NCC3CCCO3)s2)cc1C (centres unmarked),3.84%
14,Cn1cc(C(=O)OCC(=O)NC2CCCC2)c2ccccc21,8.45%
15,NS(=O)(=O)c1ccc(NC(=O)Nc2ccc(S(N)(=O)=O)cc2)cc1,13.4%
16,O=C(Nc1ccc(-c2noc(-c3ccccc3F)n2)cc1)c1cccs1,12.9%
17,COc1ccc(OC)c2[nH]c(=O)c(CCNC(=S)NC(C)(C)C)cc12,8.8%
18,CCCCOC(=O)c1ccc(NC(=O)Nc2ccc(OC)c(OC)c2)cc1,14.9%
19,Cc1ccc(S(=O)(=O)/N=C(/Nc2ccc(F)cc2F)c2ccccc2)cc1,16%
20,Cc1ccc(-n2c(C)cc(C(=O)CSc3nnc4ccccn34)c2C)cc1,0.977%
21,CN(C(=O)COC(=O)CNS(=O)(=O)/C=C/c1ccccc1)C1CCS(=O)(=O)C1 (centres unmarked),11.2%
22,COc1ccc(C2CC(=O)c3cnn(-c4nc(C)cc(C)n4)c3C2)cc1OC (centres unmarked),11%
23,CCC(C)NC(=O)C1=CCN(S(=O)(=O)c2ccc(C)cc2)CC1 (centres unmarked),9.21%

row,SMILES,"hERG current change (%, negative = inhibition) at 1uM"
1,Cc1ccc(Cn2nnnc2CN2CCC(O)(c3cccnc3)CC2)cc1.Cl,8.97%
2,O=C(NCCC1=CCCCC1)c1ccc(=O)oc1,2.53%
3,CCc1cccc(CC)c1N(COC)C(=O)Cn1nnc2ccccc21,-4.49%
4,O=C(CCC(NC(=O)OCc1ccccc1)C(=O)OCc1ccccc1)NCC(=O)OCc1ccccc1 (centres unmarked),1.31%
5,COc1ccccc1C(=O)NCCC(=O)NCCc1ccccc1,7.24%
6,CCOC(=O)C1CCN(C(=O)CN2C(=O)c3ccccc3Sc3ncccc32)CC1,12.7%
7,CCO[C@@H]1OC(C(=O)N2CCOCC2)=C[C@H](c2ccc(Br)cc2)[C@H]1CCCO,22.4%
8,COCCOC(=O)C1=C(C)NC(=O)NC1c1ccc(-c2cc(Cl)ccc2Cl)o1 (centres unmarked),10.8%
9,O=C(O)C(=O)O.c1ccc2c(OCCCCN3CCOCC3)cccc2c1,14.7%
10,Cc1cc(C)c(NC(=O)CSc2nnnn2-c2cccnc2)c(C)c1,13%
11,COCCNC(=O)c1ccc2c(c1)C(=O)c1ccccc1-2,1.39%
12,CCOC(=O)CC1C(=O)NCCN1C(=O)c1cccc(OC)c1 (centres unmarked),7.74%
13,FC(F)(F)c1nnc2ccc(N3CCCC3)nn12,-7.74%
14,O=C(CSc1ncnc2c1nnn2Cc1ccccc1F)NCC1CCCO1 (centres unmarked),11.8%
15,Cc1cc(C)c(NC(=O)/C(=C/c2ccco2)c2ccccc2)c(C)c1,-3.3%
16,CC(=O)c1ccc(OCC(=O)Nc2ccc(N3CCCCC3)cc2)cc1,1.91%
17,O=C(O)c1cccc(S(=O)(=O)NNc2ccccc2C(F)(F)F)c1,19.3%
18,Cc1ccc(-c2cc(C(=O)Nc3c(C)n(C)n(-c4ccccc4)c3=O)no2)cc1,-0.208%
19,NS(=O)(=O)c1ccc(NC(=O)COc2cccc3ccccc23)cc1,14.3%
20,Cc1ccc(C2=NN(C(=O)COc3ncnc4ccccc34)C(c3ccco3)C2)cc1 (centres unmarked),1.83%
21,Fc1ccc2nc(Nc3nc4c(F)cc(F)cc4s3)sc2c1,13.2%
22,CC(N)(C(=O)O)c1cccc(OCc2cccc(Cl)c2)c1 (centres unmarked),9.88%
23,COc1ccc(NC(=O)C2C(=O)N(CCO)C3(C)CC2c2ccccc2O3)cc1 (centres unmarked),8.96%

row,SMILES,"hERG current change (%, negative = inhibition) at 1uM"
1,N#C/C(=C\c1c(F)cccc1Cl)S(=O)(=O)c1ccccn1,9.5%
2,CC(C)(C)c1csc(SCC(=O)Nc2ccc(Cl)cn2)n1,7.76%
3,COc1cc(CN2CCN(Cc3ccc(C)cc3)C(CCO)C2)ccc1O (centres unmarked),1.28%
4,CCOC(=O)N1CCN(S(=O)(=O)c2ccc3c(c2)OCC(=O)N3)CC1,9.6%
5,CCNc1nc(NCC)n2c(SCC(=O)Nc3cccc(Cl)c3)nnc2n1,0.554%
6,CCc1ccc(/C=C2\Oc3ccc(C(=O)OC)cc3C2=O)cc1,9.41%
7,CN1CCN(c2nc(NCc3ccco3)nc(N)c2[N+](=O)[O-])CC1,-6.7%
8,Cn1c(=O)oc2cc(S(=O)(=O)NCCN3CCN(c4ccccc4F)CC3)ccc21,3.83%
9,COc1cccc(NC(=O)c2ccccc2N2C(=O)C3C4C=CC(C4)C3C2=O)c1 (centres unmarked),1.33%
10,O=C(Nc1cccc2cccnc12)c1ccc2c(c1)OCCO2,14.7%
11,Cc1ccccc1Cn1ccc(NC(=O)CCSc2nc(-c3ccco3)cc(C(F)(F)F)n2)n1,9.37%
12,COc1cc(OC)cc(C(=O)NNC(=O)CCc2ccccc2)c1,14.7%
13,O=C(N/N=C/c1sc(=O)[nH]c1-[n+]1ccccc1)c1ccccc1[O-],13.2%
14,O=C(Oc1cccc(N2C(=O)CCC2=O)c1)C1CC(=O)N(c2ccc(F)cc2)C1 (centres unmarked),8.48%
15,Clc1cccc(Oc2cnns2)c1Cl,4.25%
16,O=S(=O)(c1ccccc1)N1N=C(c2cccs2)CC1c1cccc(O)c1 (centres unmarked),18%
17,Nc1cc(N)nc(SCC(=O)N2CCc3ccccc32)n1,6.36%
18,COc1cc(/C=N/NC(N)=S)ccc1OCC(=O)Nc1ccc(C)cc1,10.8%
19,CCC(=O)NC(=S)Nc1ccccc1C(F)(F)F,7.06%
20,O=C(NNc1ccccc1)C(=O)NNS(=O)(=O)c1ccc([N+](=O)[O-])cc1,10.9%
